PMC9911399, “Two distinct binding modes provide the RNA-binding protein RbFox with extraordinary sequence specificity”
Numbering of substitutions follows the chain as printed; changes in the protein carry UniProt numbers. The list shows a part of the results.

T1: RBFOX1 RRM RbFoxmut (Fox-RRM*) (Homo sapiens, UniProt Q9NWB1 109-208, R118D;E147R;N151S;E152T)
T1 sequence: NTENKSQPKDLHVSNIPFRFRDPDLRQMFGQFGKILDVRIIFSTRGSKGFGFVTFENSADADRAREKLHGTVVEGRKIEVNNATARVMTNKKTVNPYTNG

B1: AUUCGAA (DNA:RNA)
RNA: GGGAGACCGGAAUUCAGAUUGUCCAUUCGAAUUAAAUCCCGUCGUAGCCACCA
DNA 1: CAATCTGAATTCCGGTCTCCC
DNA 2: TGGTGGCTACGACGGGATT
B2: UAACGCC (DNA:RNA)
RNA: B1 RNA with A25U, U26A, U27A, A30C, A31C
DNA 1: CAATCTGAATTCCGGTCTCCC
DNA 2: TGGTGGCTACGACGGGATT
B3: CGUUGUA (DNA:RNA)
RNA: B1 RNA with A25C, U26G, C28U, A30U
DNA 1: CAATCTGAATTCCGGTCTCCC
DNA 2: TGGTGGCTACGACGGGATT
B4: UCAGUCU (DNA:RNA)
RNA: GGGAGACCGGAAUUCAGAUUGUCCUCAGUCUUUAAAUCCCGUCGUAGCCACCA
DNA 1: CAATCTGAATTCCGGTCTCCC
DNA 2: TGGTGGCTACGACGGGATT
B5: CACCAUG (DNA:RNA)
RNA: B1 RNA with A25C, U26A, U27C, G29A, A30U, A31G
DNA 1: CAATCTGAATTCCGGTCTCCC
DNA 2: TGGTGGCTACGACGGGATT
B6: AAUUAUG (DNA:RNA)
RNA: B1 RNA with U26A, C28U, G29A, A30U, A31G
DNA 1: CAATCTGAATTCCGGTCTCCC
DNA 2: TGGTGGCTACGACGGGATT
B7: AGCGAUG (DNA:RNA)
RNA: B1 RNA with U26G, U27C, C28G, G29A, A30U, A31G
DNA 1: CAATCTGAATTCCGGTCTCCC
DNA 2: TGGTGGCTACGACGGGATT
B8: AUACACC (DNA:RNA)
RNA: B1 RNA with U27A, G29A, A30C, A31C
DNA 1: CAATCTGAATTCCGGTCTCCC
DNA 2: TGGTGGCTACGACGGGATT
B9: GCAAGUC (DNA:RNA)
RNA: B4 RNA with U25G, G28A, U29G, C30U, U31C
DNA 1: CAATCTGAATTCCGGTCTCCC
DNA 2: TGGTGGCTACGACGGGATT
B10: CAAGUUC (DNA:RNA)
RNA: B4 RNA with U25C, C26A, C30U, U31C
DNA 1: CAATCTGAATTCCGGTCTCCC
DNA 2: TGGTGGCTACGACGGGATT
B11: GGGUGGA (DNA:RNA)
RNA: B1 RNA with A25G, U26G, U27G, C28U, A30G
DNA 1: CAATCTGAATTCCGGTCTCCC
DNA 2: TGGTGGCTACGACGGGATT
B12: AGGAACA (DNA:RNA)
RNA: B1 RNA with U26G, U27G, C28A, G29A, A30C
DNA 1: CAATCTGAATTCCGGTCTCCC
DNA 2: TGGTGGCTACGACGGGATT
B13: AUGCAAG (DNA:RNA)
RNA: B1 RNA with U27G, G29A, A31G
DNA 1: CAATCTGAATTCCGGTCTCCC
DNA 2: TGGTGGCTACGACGGGATT
B14: AUUUCGG (DNA:RNA)
RNA: B1 RNA with C28U, G29C, A30G, A31G
DNA 1: CAATCTGAATTCCGGTCTCCC
DNA 2: TGGTGGCTACGACGGGATT
B15: ACCUUGU (DNA:RNA)
RNA: B4 RNA with U25A, A27C, G28U, C30G
DNA 1: CAATCTGAATTCCGGTCTCCC
DNA 2: TGGTGGCTACGACGGGATT
B16: CAACACU (DNA:RNA)
RNA: B4 RNA with U25C, C26A, G28C, U29A
DNA 1: CAATCTGAATTCCGGTCTCCC
DNA 2: TGGTGGCTACGACGGGATT
B17: UGCCACU (DNA:RNA)
RNA: B4 RNA with C26G, A27C, G28C, U29A
DNA 1: CAATCTGAATTCCGGTCTCCC
DNA 2: TGGTGGCTACGACGGGATT
B18: ACUGGAG (DNA:RNA)
RNA: B1 RNA with U26C, C28G, A31G
DNA 1: CAATCTGAATTCCGGTCTCCC
DNA 2: TGGTGGCTACGACGGGATT
B19: AAGUGAG (DNA:RNA)
RNA: B1 RNA with U26A, U27G, C28U, A31G
DNA 1: CAATCTGAATTCCGGTCTCCC
DNA 2: TGGTGGCTACGACGGGATT
B20: GUUCCGU (DNA:RNA)
RNA: B1 RNA with A25G, G29C, A30G, A31U
DNA 1: CAATCTGAATTCCGGTCTCCC
DNA 2: TGGTGGCTACGACGGGATT
B21: UCGAGCU (DNA:RNA)
RNA: B4 RNA with A27G, G28A, U29G
DNA 1: CAATCTGAATTCCGGTCTCCC
DNA 2: TGGTGGCTACGACGGGATT
B22: AUCUGAG (DNA:RNA)
RNA: B1 RNA with U27C, C28U, A31G
DNA 1: CAATCTGAATTCCGGTCTCCC
DNA 2: TGGTGGCTACGACGGGATT
B23: CGCUAUA (DNA:RNA)
RNA: B1 RNA with A25C, U26G, U27C, C28U, G29A, A30U
DNA 1: CAATCTGAATTCCGGTCTCCC
DNA 2: TGGTGGCTACGACGGGATT
B24: UGGACCU (DNA:RNA)
RNA: B4 RNA with C26G, A27G, G28A, U29C
DNA 1: CAATCTGAATTCCGGTCTCCC
DNA 2: TGGTGGCTACGACGGGATT
B25: GCUUGGA (DNA:RNA)
RNA: B1 RNA with A25G, U26C, C28U, A30G
DNA 1: CAATCTGAATTCCGGTCTCCC
DNA 2: TGGTGGCTACGACGGGATT
B26: UAGUUUG (DNA:RNA)
RNA: B4 RNA with C26A, A27G, G28U, C30U, U31G
DNA 1: CAATCTGAATTCCGGTCTCCC
DNA 2: TGGTGGCTACGACGGGATT
B27: GAGCACG (DNA:RNA)
RNA: B1 RNA with A25G, U26A, U27G, G29A, A30C, A31G
DNA 1: CAATCTGAATTCCGGTCTCCC
DNA 2: TGGTGGCTACGACGGGATT
B28: ACAGGGC (DNA:RNA)
RNA: B4 RNA with U25A, U29G, C30G, U31C
DNA 1: CAATCTGAATTCCGGTCTCCC
DNA 2: TGGTGGCTACGACGGGATT
B29: UCUCAGC (DNA:RNA)
RNA: B1 RNA with A25U, U26C, G29A, A30G, A31C
DNA 1: CAATCTGAATTCCGGTCTCCC
DNA 2: TGGTGGCTACGACGGGATT
B30: GCUCAGU (DNA:RNA)
RNA: B1 RNA with A25G, U26C, G29A, A30G, A31U
DNA 1: CAATCTGAATTCCGGTCTCCC
DNA 2: TGGTGGCTACGACGGGATT
B31: CCAGCCA (DNA:RNA)
RNA: B4 RNA with U25C, U29C, U31A
DNA 1: CAATCTGAATTCCGGTCTCCC
DNA 2: TGGTGGCTACGACGGGATT

Target: T1, RBFOX1 RRM RbFoxmut (Fox-RRM*)
Experiment: EMSA; HiTS-Eq, 1 nM pool, 10 min; buffer printed only for the single-RNA assays: 10 mM Tris pH 7.5, 150 mM NaCl, 3.4 mM EDTA, 0.001% NP-40, 30 C
Settings: tags: His6 N-terminal (pET28a); label: 5' 32P
Summary of the method: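 Relative association constants, normalised to the cognate motif, were derived by comparing read counts of each RNA species with those of the control reaction. The RNA sequenced was the free fraction, separated by 8% native PAGE after a 10 min equilibration in 50 µL of 1 nM 5′-radiolabelled RNA (7 randomized nucleotides) with increasing concentrations of purified wild-type or mutant RbFox RRM.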

Row | Binder | binding signal
1 | B1 | 0.114 KA relative to UGCAUGU
2 | B2 | 0.072 KA relative to UGCAUGU
3 | B3 | 0.258 KA relative to UGCAUGU
4 | B4 | 0.0639 KA relative to UGCAUGU
5 | B5 | 0.11 KA relative to UGCAUGU
6 | B6 | 0.125 KA relative to UGCAUGU
7 | B7 | 0.163 KA relative to UGCAUGU
8 | B8 | 0.0602 KA relative to UGCAUGU
9 | B9 | 0.058 KA relative to UGCAUGU
10 | B10 | 0.0878 KA relative to UGCAUGU
11 | B11 | 0.0811 KA relative to UGCAUGU
12 | B12 | 0.082 KA relative to UGCAUGU
13 | B13 | 0.131 KA relative to UGCAUGU
14 | B14 | 0.0638 KA relative to UGCAUGU
15 | B15 | 0.161 KA relative to UGCAUGU
16 | B16 | 0.0603 KA relative to UGCAUGU

Row | Binder | binding signal
17 | B17 | 0.0751 KA relative to UGCAUGU
18 | B18 | 0.0916 KA relative to UGCAUGU
19 | B19 | 0.137 KA relative to UGCAUGU
20 | B20 | 0.127 KA relative to UGCAUGU
21 | B21 | 0.0817 KA relative to UGCAUGU
22 | B22 | 0.0945 KA relative to UGCAUGU
23 | B23 | 0.137 KA relative to UGCAUGU
24 | B24 | 0.0912 KA relative to UGCAUGU
25 | B25 | 0.0637 KA relative to UGCAUGU
26 | B26 | 0.24 KA relative to UGCAUGU
27 | B27 | 0.287 KA relative to UGCAUGU
28 | B28 | 0.0979 KA relative to UGCAUGU
29 | B29 | 0.0921 KA relative to UGCAUGU
30 | B30 | 0.0767 KA relative to UGCAUGU
31 | B31 | 0.0765 KA relative to UGCAUGU
